Source: PubChem BioAssay AID1508623 (National Center for Advancing Translational Sciences (NCATS), 2021)
Hit rate of the full screen: of about 48,000 compounds, about 450 (0.94%) were called active. Roughly 19% stayed inconclusive and do not appear here. Calls follow the shape of the dose curve; as a rule, active = well fitted inhibition curve with a large enough effect; inconclusive = small, poorly fitted or top-dose-only effect; inactive = no such curve, though single readings can be large or run the other way. The list shows a part of the results.

assay: Primary qHTS for Identification of Small Molecule Inhibitors of Huntingtin Promoter Activity; conditions: HEK293 HTT promoter firefly luciferase reporter (activity 0% = vehicle and -100% = no light), 24 h; series mostly up to 57.5 µM; activity change, negative = inhibition: at the top concentration; also: nearly all actives have a fitted effect of over 50% in size
Summary of the method: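 HEK293 Fluc reporter, 2,500 cells/well, 24 h pre-culture; cpds up to 57.5 uM final, 24 h 37 degrees C; Dual-Glo, 10 min RT; normalized vehicle = 0%, zero RLU = -100%.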
Potency is read from the fitted curve at half-maximal effect.

| Compound | activity change, negative = inhibition | Potency |
| --- | --- | --- |
| Cc1cc(C)c2oc(C(=O)Nc3sc4c(c3C(=O)NCc3ccco3)CCC4)cc(=O)c2c1 | inactive: 16.5% | – |
| C[C@@H]1CCN(C(=O)[C@H](CCCN=C(N)N)NS(=O)(=O)c2cccc3c2NC[C@H](C)C3)[C@@H](C(=O)O)C1 | inactive: -2.04% | – |
| COc1ccc(-c2nc3scc(CCNS(=O)(=O)c4c(C)noc4C)n3n2)cc1 | inactive: -8.92% | – |
| Cc1ccc(NC(=O)/C=C/c2ccccc2)c(Br)c1 | inactive: 60.3% | – |
| Cc1ccc(C)c(CN2C(=O)c3ccccc3S(=O)(=O)c3ccc(C(=O)Nc4ccccc4C(F)(F)F)cc32)c1 | inactive: -19% | – |
| CN1CCN(C(=O)C(=O)Nc2c3c(nn2-c2ccc(F)cc2)CSC3)CC1 | inactive: -11% | – |
| CC(=O)O[C@@]12CO[C@H]1C[C@H](O)[C@@]1(C)C(=O)[C@H](O)C3=C(C)[C@@H](OC(=O)C(O)[C@@H](NC(=O)OC(C)(C)C)c4ccccc4)C[C@@](O)([C@@H](OC(=O)c4ccccc4)[C@@H]21)C3(C)C (some centres not stated) | inactive: -13.3% | – |
| Cc1ccc(S(=O)(=O)NCCc2nnc3ccc(SCc4ccccc4C)nn23)cc1 | inactive: -21.9% | – |
| COc1ccc(N2CCN(C(=O)Cn3cnc4nc5c(cc4c3=O)CCCC5)CC2)cc1 | inactive: -14.8% | – |
| CCOC(=O)c1cccc(NC(=O)c2cc(CN3CCCC3)on2)c1 | inactive: 14.4% | – |
| Cc1ccc(Cn2cccc2C2=NC(C)(C)CO2)cc1 | inactive: -7.09% | – |
| COc1ccccc1OC(C)C(=O)NCC1(N2CCOCC2)CCCCC1 (configuration not stated) | inactive: -14.2% | – |
| CC1CCN(S(=O)(=O)c2ccc3c(c2)N(CC(=O)NC(C)C)C(=O)CS3)CC1 | inactive: -10.2% | – |
| Cc1ccc(OC(=O)c2cc(-c3ccc4c(c3)OCCO4)on2)c(C)c1 | inactive: 9.83% | – |
| CCc1nn(CCCC(=O)NCc2ccccc2Br)c(=O)c2cc3occc3n12 | inactive: -21% | – |
| COc1ccc(NC(=O)CCNS(=O)(=O)c2cccc3nonc23)cc1 | inactive: -4.17% | – |
| Cc1ccc(OCC(=O)NCC2(N3CCN(C)CC3)CCCCC2)cc1C | inactive: -7.89% | – |
| Cc1c(Cl)ccc2sc(N3CCN(C(=O)c4ccco4)CC3)nc12 | inactive: 20.8% | – |
| Cc1ccc(CCNC(=O)CN(c2ccc(C)cc2)S(=O)(=O)c2c(C)noc2C)cc1 | inactive: -24.7% | – |
| COc1ccccc1CNc1ccc(-c2nc(C(C)C)no2)cc1[N+](=O)[O-] | inactive: -10.2% | – |
| Cc1ccc(C)c(NC(=O)Cn2cc(C(=O)c3ccncc3)c(=O)c3cc(F)ccc32)c1 | inactive: -17.4% | – |
| COc1ccc(NC(=O)Cn2cnc3sc(C)c(S(=O)(=O)N4CCN(C)CC4)c3c2=O)cc1OC | inactive: -4.54% | – |
| CN(C)c1ccc(CNc2nc(-c3ccco3)nn2S(=O)(=O)c2ccc3ccccc3c2)cc1 | inactive: 8.8% | – |
| O=C(CSc1nc2c(c(=O)[nH]1)CCC2)Nc1ccccc1F | inactive: 0.973% | – |

| Compound | activity change, negative = inhibition | Potency |
| --- | --- | --- |
| Cc1ccc(C(=O)Nc2ccc(Cl)c(-c3nc4ncccc4o3)c2)c(C)c1 | inactive: 44.5% | – |
| Cc1ccccc1-c1nc(CNC(=O)Nc2ccccc2)c(C)o1 | inactive: -1.85% | – |
| CCOC(=O)C1CCN(C(c2ccccc2OC)c2c(O)cc(C)n(CCOC)c2=O)CC1 (configuration not stated) | inactive: -12.6% | – |
| COc1cccc(-c2nc(-c3ccc(-c4ccccc4)nc3OC)no2)c1 | inactive: 16.9% | – |
| O=C(Nc1ccc(F)cc1)[C@H](Cc1ccccc1)N1Cc2ccccc2C1=O | inactive: -18.5% | – |
| CN(C(=O)C(Cl)Cl)c1ccc(OC(=O)c2ccco2)cc1 | inactive: 6.42% | – |
| Cn1nnnc1SCCCNCc1cccc(OCc2ccc(Cl)cc2)c1 | inactive: -10.9% | – |
| CCc1cc(Nc2nccc(-c3c(-c4ccc(OC)c(C(=O)Nc5c(F)cccc5F)c4)nc4ccccn34)n2)c(OC)cc1N1CCC(N2CCN(S(C)(=O)=O)CC2)CC1 | inactive: 1.18% | – |
| CCOc1ccccc1NC(=O)C1CCN(S(=O)(=O)c2c(C)noc2/C=C/c2ccc(C)cc2)CC1 | inactive: -7.95% | – |
| O=C(c1cc2c(=O)oc3ccccc3c2s1)N1CCN(c2cccc(Cl)c2)CC1 | inactive: -11.4% | – |
| COc1cc(/C=C/C(N)=O)cc(OC)c1OC | inactive: 21.6% | – |
| CCOC(=O)N1CCN(C(=O)CN(c2cccc(Cl)c2C)S(=O)(=O)c2ccc(C)cc2)CC1 | inactive: -32.8% | – |
| O=C(Nc1ccccc1)c1cccc2c(=O)c3c([nH]c12)CCCC3 | inactive: -11.5% | – |
| COc1ccccc1-c1nc(-c2ccc(Br)o2)no1 | inactive: 24.1% | – |
| Cc1cccc(-n2c(SCC(N)=O)nc3c(oc4ccccc43)c2=O)c1 | inactive: -17.8% | – |
| COCCn1c(SCC(=O)c2cc(C)ccc2C)nc2cc(C(=O)NC3CCCC3)ccc2c1=O | inactive: -28.4% | – |
| Cc1cc(C)cc(NC(=O)c2cc(S(=O)(=O)N3CCCCCC3)cn2C)c1 | inactive: -9.14% | – |
| Nc1ccn([C@H]2CC[C@@H](CO)O2)c(=O)n1 | inactive | – |
| Cn1c(SCc2ccc(F)cc2)nc2ccc(C(=O)NCc3ccc(F)cc3)cc21 | – | active: 25.1 µM |
| Cc1nn(CC(=O)NC2CC2)c(=O)c2cc3ccccc3n12 | inactive: -7.64% | – |
| CCN(CC)CCN(C(=O)c1ccco1)c1nc2ccc(Cl)cc2s1 | inactive: 1.71% | – |
| Cc1ccc(-n2nc3c(N4CCC(C(=O)NC(C)C)CC4)nnc(C)c3c2C)cc1 | inactive: -5.92% | – |
| Cc1ccc(NC(=O)Cn2c(-c3ccc4c(c3)OCO4)cn(-c3ccccc3)c2=O)cc1C | inactive: 15.6% | – |
